Measured values from the supplement of paper PMC3334620.
Over roughly 33,000 sequences, “E-score (-0.5 to 0.5)” has its median near -0.011; the highest 2% begin near 0.28. The list shows a part of the results.

What follows are sequences tested against T1, Gcr1 (UniProt P07261) (assay: PBM E-score (8-mer binding enrichment) (E-score (-0.5 to 0.5)); higher = stronger / more preferred TF binding; most listed sequences are background and not binding sites). Conditions: protein concentration: 100 nM; construct: GST-full length.
T1 sequence: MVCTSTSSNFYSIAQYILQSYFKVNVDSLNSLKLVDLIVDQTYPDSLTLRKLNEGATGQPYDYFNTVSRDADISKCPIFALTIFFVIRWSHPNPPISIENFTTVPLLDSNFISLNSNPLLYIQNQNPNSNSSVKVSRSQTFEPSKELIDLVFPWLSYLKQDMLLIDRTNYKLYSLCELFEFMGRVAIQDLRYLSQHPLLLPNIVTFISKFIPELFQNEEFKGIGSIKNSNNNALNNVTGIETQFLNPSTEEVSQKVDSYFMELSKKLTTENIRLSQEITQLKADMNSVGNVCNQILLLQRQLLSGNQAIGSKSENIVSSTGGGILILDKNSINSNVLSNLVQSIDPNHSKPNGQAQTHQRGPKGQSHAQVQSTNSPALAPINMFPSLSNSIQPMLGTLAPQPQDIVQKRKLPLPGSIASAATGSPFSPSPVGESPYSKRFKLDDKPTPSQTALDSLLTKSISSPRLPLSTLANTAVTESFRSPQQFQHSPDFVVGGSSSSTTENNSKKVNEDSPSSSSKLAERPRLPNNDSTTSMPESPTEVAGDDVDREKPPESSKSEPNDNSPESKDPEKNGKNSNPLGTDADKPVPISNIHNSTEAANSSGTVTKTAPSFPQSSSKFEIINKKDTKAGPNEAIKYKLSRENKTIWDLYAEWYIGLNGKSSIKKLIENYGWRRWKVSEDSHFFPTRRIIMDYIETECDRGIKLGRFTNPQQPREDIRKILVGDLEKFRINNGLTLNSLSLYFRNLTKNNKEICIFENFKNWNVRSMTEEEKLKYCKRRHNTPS
In short: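 For each ungapped eight-base word taken together with its reverse complement, the Universal PBM Analysis Suite assigned an E-score. Binding data came from GST-tagged yeast transcription factors, applied at about 100-200 nM, on universal all-10-mer Agilent arrays made double-stranded by primer extension. Fluorescent anti-GST marked bound protein, and scans were normalised with masliner.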

Point of comparison: AGTTCACC, “PBM E-score” value 0.108. Against it:
- AATTTTCC — lower, -0.0622
- GACAACAA — lower, -0.0383
- ATGACATA — higher, 0.127
- CCGACCGG — lower, -0.228
- CGATGCAA — lower, -0.00404
- ATTTGAGC — lower, 0.044
- ACAGCCCA — lower, -0.203
- CATAGGTA — lower, -0.16
- ATCGCTCA — lower, -0.22
- ATTCGATG — lower, -0.224
- GTAGCGTA — lower, -0.035
- CAAGACGA — lower, -0.126
- ACGTTGAT — lower, -0.088
- CTGGCGGC — higher, 0.265
- AGTGTGCA — lower, -0.0703
- GACCCCAC — higher, 0.109
- ACCTGACC — lower, -0.114
- AAAAACAC — higher, 0.16
- CAGTGCAC — lower, -0.236
- AGATGCAG — lower, 0.0768
- AATTATCT — lower, 0.0755
- CTCTTATA — higher, 0.148
- TCAATGGA — higher, 0.134
- GGTCGTGA — lower, -0.182
- ATACTTTG — the same, 0.108
- GAGAACCC — lower, -0.162
- ACCGAACT — lower, -0.101
- CTGGTTTC — higher, 0.156
- AGCACAAC — lower, -0.239
- AAGAACAC — lower, -0.0308
- AAATTGTG — lower, -0.0559
- AAGGCTGA — lower, -0.141
- CAAGACCC — lower, -0.00554
- AAGACTCG — lower, -0.173
- CACGCTGA — lower, -0.0481
- CAGCGCAG — lower, -0.202
- ACTTCATC — lower, 0.0133
- AGGTCGTG — lower, -0.126
- GAAGGTAC — lower, -0.081
- CAAAAGCC — lower, -0.105
- CGATTGTC — lower, -0.16
- CTGATCGA — lower, -0.133
- AATACAGC — lower, -0.151
- TCCCCAAA — higher, 0.226
- CCAGTGAA — lower, 0.0919
- GACGCCTA — higher, 0.205
- CCGCGGCG — lower, 0.0505
- ATCCCTCG — lower, -0.1
- AGGTAATA — lower, 0.0421
- GTGGCCCA — lower, -0.239
- AGGCCACA — lower, -0.0873
- CAATGATA — lower, -0.0969
- AAAGCCTT — lower, -0.175
- CTGCATAA — higher, 0.163
- GAGGCCAC — higher, 0.146
- CGTGATAA — higher, 0.144
- CCTCACAG — lower, -0.035
- GTTTGGTA — the same, 0.108
- ATTCTTCG — lower, -0.0525
- AGATCGTC — lower, -0.0739
- ACCAACTG — lower, 0.0244
- TATCGCGA — lower, 0.0936
- GACGAGGA — lower, 0.0795
- ACAAGGTG — lower, 0.0691
- CTCTGGTA — lower, 0.0394
- AGCCGTGG — lower, -0.108
- AGAAGCAG — higher, 0.174
- CATAGTGG — higher, 0.135
- ATGATGAA — higher, 0.11
- CACATCCC — lower, 0.0123
- GGCGATAA — lower, -0.062
- GACATTAC — lower, 0.102
- AGGCCGAA — lower, -0.131
- ACCCAGCG — lower, -0.188
- AAGGGATT — lower, -0.132
- ACTGAGGA — lower, -0.0737
- AAAGAGGT — lower, 0.028
- ACCACTAT — higher, 0.356
- CCATTTAC — lower, 0.0873
- ATTTAGCC — lower, 0.00789
- CACCGTCG — lower, -0.317
- CCACTAAC — higher, 0.21
- TGCATGAA — lower, -0.0557
- GATACAAC — lower, 0.0299
- ATTTACGG — lower, 0.0521
- GACTCAAC — lower, -0.0666
- ATTTTGAA — lower, 0.0622
- AGCAGATA — lower, -0.145
- CTTGCATA — lower, 0.0241
- GTATTAAC — lower, -0.0433
- CGTGGGAA — lower, 0.00627
- TGCCAAAA — lower, 0.0885
- AAAGTTCA — lower, 0.0731
